Test results as given in patent US20060034941A1, “Organ preconditioning, arrest, protection, preservation and recovery” (priority 2002, published 2006).

System: in situ rat heart, regional ischaemia by left coronary artery (LCA) occlusion
Assay: In vivo rat model of regional myocardial ischaemia (30 min left coronary artery ligation, 120 min reperfusion)
Settings: for episodes of VF during reperfusion: 30 min reperfusion; for area of necrosis (AN/LV): % of left ventricle, after 120 min reperfusion; for animals experiencing at least one episode of VT at reperfusion: within the first minute of reperfusion / immediately following ischemia
[1] = 30 min ischaemia, surviving rats

| Structure (SMILES) | deaths during ischaemia (number of animals or words) (30 min LCA occlusion) | died during ischaemia from ventricular fibrillation (30 min LCA occlusion, % of animals of the group) [%] | animals experiencing ventricular fibrillation (VF) during ischaemia [1] [%] | animals experiencing ventricular tachycardia (VT) during ischaemia [1] [%] | duration of VT during ischaemia [1] [s] | episodes of VF during ischaemia [1] [episodes] | episodes of VT during ischaemia [1] [episodes] | episodes of VF during reperfusion | area of necrosis (AN/LV) [%] | duration of VT during reperfusion (first 30 min of reperfusion) [s] | VT+VF duration during reperfusion (reperfusion) [s] | animals experiencing at least one episode of VT at reperfusion [%] | effect on VT and VF during ischemia (30 min ischemia) | died during ischaemia from ventricular fibrillation (2 mg/kg bolus of lidocaine before ischaemia (before adenosine infusion)) [%] | VT+VF duration during ischaemia [1] [s] | infarct size increase above saline-controls (vs saline-controls) |
| --- | --- | --- | --- | --- | --- | --- | --- | --- | --- | --- | --- | --- | --- | --- | --- | --- |
| Nc1ncnc2c1ncn2[C@@H]1O[C@H](CO)[C@@H](O)[C@H]1O [Ado-only, adenosine] | 4 of the 8 | 50 | 100 | 50 | 27 ± 18 | 3±2 | 11±7 | no episodes of VF | 33±7 | 11 ± 8 | 11 ± 8 | 75 | – | – | – | – |
| OC[C@H]1O[C@@H](n2cnc3c(NC4CCCC4)nc(Cl)nc32)[C@H](O)[C@@H]1O [CCPA, 2-chloro-N^6-cyclopentyladenosine] | two | – | – | – | 56 ± 18 | – | – | – | 24±3 | – | – | 100 | virtually no fibrillation | – | – | – |
| CCN(CC)CC(=O)Nc1c(C)cccc1C [Lido-only, lidocaine] | – | – | 33 | 83 | 31 ± 18 | 2±1 | 23±11 | no episodes of VF | 33±3 | – | – | 16 | – | 29 | 37 ± 22 | about 8% |
